Measurements: article PMC6919601, “Identification of Plasmodium dipeptidyl aminopeptidase allosteric inhibitors by high throughput screening” (PLoS ONE, 2019)
About 230 (0.21%) of roughly 110,000 compounds showed an effect of 50% or more. This is one part of the list.

Each compound was assayed against DPAP1 (Plasmodium falciparum, UniProt Q8IIJ9) (assay: primary screen, percent inhibition; read by cleavage of a fluorogenic dipeptide substrate; higher = more effect of the substance).
Design: species or system P. falciparum D10 trophozoite lysates; single well
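Further: 30 min substrate incubation versus DMSO and 10 µM JCP410 controls.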

Chain of DPAP1 (Q8IIJ9 whole entry, looked up): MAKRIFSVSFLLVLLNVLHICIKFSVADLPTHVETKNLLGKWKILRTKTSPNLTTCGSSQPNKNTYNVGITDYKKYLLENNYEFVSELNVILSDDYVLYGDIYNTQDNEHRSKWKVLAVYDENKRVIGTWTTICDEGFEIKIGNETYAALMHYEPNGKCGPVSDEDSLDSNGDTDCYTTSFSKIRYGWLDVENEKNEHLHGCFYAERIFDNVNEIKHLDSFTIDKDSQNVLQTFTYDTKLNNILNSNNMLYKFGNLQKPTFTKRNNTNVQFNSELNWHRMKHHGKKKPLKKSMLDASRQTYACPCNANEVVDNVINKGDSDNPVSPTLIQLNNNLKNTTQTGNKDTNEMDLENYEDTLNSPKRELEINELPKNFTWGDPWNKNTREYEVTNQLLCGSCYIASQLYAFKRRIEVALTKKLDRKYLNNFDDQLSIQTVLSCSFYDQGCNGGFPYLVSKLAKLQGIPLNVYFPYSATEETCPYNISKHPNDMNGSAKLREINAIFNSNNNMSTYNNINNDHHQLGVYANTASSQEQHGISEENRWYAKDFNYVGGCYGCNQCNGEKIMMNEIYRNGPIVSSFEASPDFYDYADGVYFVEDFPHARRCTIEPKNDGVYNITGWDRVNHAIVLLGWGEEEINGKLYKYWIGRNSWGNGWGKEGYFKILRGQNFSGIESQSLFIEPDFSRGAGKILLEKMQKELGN

SMILES | % Inhibition @ 10 uM
O=C(c1cc(Cl)ccc1Cl)N1CCN(Cc2ccccc2)CC1 | 9.82%
N#CC1=C(N)Oc2cc(N)ccc2C1c1ccc(Cl)c(Cl)c1 (stereo not drawn) | 4.66%
COc1ccc(-c2cc(-c3ccc(OC)cc3)nc(Nc3ccccc3C(=O)O)n2)cc1 | -0.736%
Cc1ccc(-c2nn(CC(=O)NCc3ccco3)c(=O)c3ccccc23)cc1 | -8.86%
COc1cc(C(=O)c2ccccc2)c(OC)cc1C(=O)NC1CC(C)(C)NC(C)(C)C1 | 1.76%
COc1ccc2c(CNCc3ccc4c(c3)OCO4)c(C(=O)O)n(Cc3ccc(F)cc3Cl)c2c1 | 6.45%
CCOC1CC(c2ccccc2)=NN1c1ccc([N+](=O)[O-])cc1 (stereo not drawn) | -4.24%
COC(=O)CCC(=O)Nc1ccc(C)cc1 | 0.00178%
CCc1ccc(-c2cc(C(=O)O)c3ccccc3n2)cc1 | 0.177%
O=C(NCc1ccncc1)C(Sc1ccccc1)c1ccccc1 (stereo not drawn) | -3.75%
Cc1c(CN2CCCCC2C)c(=O)n(-c2ccccc2)n1C (stereo not drawn) | -0.664%
COc1cc(OC)c(OC)cc1/C=C1\SC(c2ccc(C)cc2)=NC1=O | -6.59%
Cc1ccccc1C(=O)NC1CCN(Cc2ccccc2)CC1 | -0.833%
COc1ccc(NC(=O)CSc2ccc(C)cc2)cc1 | 2.37%
Cc1oc(-c2cccc(Cl)c2)nc1CN1CCCC(C(=O)NCCCN2CCOCC2)C1 (stereo not drawn) | -1.05%
O=C(O)c1nccnc1C(=O)NCc1ccco1 | -4.98%
CCCCN1C(=O)c2cccc3c(S(=O)(=O)NC4(C(=O)O)CCCCC4)ccc1c23 | 2.49%
N#C/C(=C\c1c(Oc2ccccc2Cl)nc2ccccn2c1=O)C(=O)N1CCOCC1 | -5.11%
N#Cc1c(N)nc(SCc2ccccc2)c(C#N)c1-c1ccco1 | 2.55%
CC(C)C[C@H](NC(=O)OC1CCCc2ccccc21)C(=O)NCC#N (stereo partly drawn) | -3.04%
CCCCCC1CCN2c3c1cc(C(=O)O)cc3C1C=CCC1C2c1ccccc1 (stereo not drawn) | 20.4%
CC(C)OP(=O)(CN1CCCCC1)OC(C)C | 3.98%
Cc1ccc(CNC(=O)CSCc2ccccc2C)cc1 | 1.27%
COc1ccc(N2C(=O)c3ccccc3NC2c2ccc(C)cc2)cc1 (stereo not drawn) | -1.96%
CCSc1nnc(NC(=O)c2cc(=O)c3cc(C)cc(C)c3o2)s1 | 5.06%
CCn1cc(/C=C2/NC(=O)N(Cc3ccccc3F)C2=O)c2ccccc21 | -11.5%
CCOc1ccc(Cl)cc1/C=C1\NC(=O)N(Cc2ccccc2F)C1=O | -5.51%
